Experimental data: PubChem BioAssay AID1508642 (National Center for Advancing Translational Sciences (NCATS), 2021)
Among all 43,000 compounds or so, about 200 (0.47%) were called active. Inconclusive results (about 12%) are left out. Calls follow the shape of the dose curve; as a rule, active = well fitted cell-killing curve with a large enough effect; inconclusive = small, poorly fitted or top-dose-only effect, or effect the other way; inactive = flat fitted curve, though single readings scatter. The list shows a part of the results.

Assay: Cell viability qHTS assay in S16 Pmp22-F2sN cells; also: nearly all actives have a fitted effect of over 65% in size
Details: S16 Pmp22-F2sN Schwann cells viability, CellTiter-Glo, 24 h; series mostly up to 57.5 µM; activity change, negative = cytotoxicity: at the top concentration
Outline: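 S16 Pmp22-F2sN Schwann cells (500-1,000/well) in phenol-red-free DMEM with 10% FBS received 23 nL compound by pin tool for 24 h at 37 °C. Viability was then read as CellTiter-Glo luminescence after 15 min at room temperature.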
% is scaled to controls: 0 for no effect and ±100 for the full control effect.

Compound | activity change, negative = cytotoxicity
CCOc1ccc(OCC)c(NC(=O)c2ccc(-c3ccccc3)s2)c1 | inactive: 4.94%
Cc1nc2nc(SCC(=O)NC3CCC(C)CC3)nn2c(C)c1Cc1ccccc1 (stereo not given) | inactive: 0.189%
COC(=O)c1ccc(-c2nc3cc(NC(C)=O)ccc3o2)cc1 | inactive: 5.12%
CCOc1ccc(CCNC(=O)c2sc3ncccc3c2-n2cccc2)cc1OCC | inactive: -3.78%
CCC(C)NC(=O)Cn1c(=O)n(-c2ccc(C)c(C)c2)c(=O)c2c3c(sc21)CCCCC3 (stereo not given) | inactive: 2.03%
Cc1cccc(CS(=O)(=O)Cc2ccc(C(=O)NCCc3ccccc3)o2)c1 | inactive: -18.1%
COc1ccc(CCNc2nc(-c3ccc(OC)c(OC)c3)cc(C(F)(F)F)n2)cc1OC | inactive: -13.6%
CCOC(=O)c1c(S(=O)(=O)N2CCCC(C(=O)NCc3cccc(OC)c3)C2)c(C)n(C)c1C (stereo not given) | inactive: -2.96%
Cc1ccc(N2CC(NC(=O)c3ccc(S(=O)(=O)N4CCCC4)cc3)CC2=O)cc1C (stereo not given) | inactive: -0.608%
Cc1cc(C)cc(-n2ccn(CC(=O)Nc3cc(C)ccc3C)c(=O)c2=O)c1 | inactive: 6.36%
CCn1cc(C(=O)NCCCN2CCCC(C)C2)c(=O)c2cc(S(=O)(=O)N(C)C3CCCCC3)ccc21 (stereo not given) | inactive: -3.98%
COc1ccc(-c2nnc(SCC(=O)NC3CCCC3)nc2-c2ccc(OC)c(OC)c2)cc1OC | inactive: -3.61%
COc1cccc(OC)c1C(=O)Nc1cccc(-c2cn3ccsc3n2)c1 | inactive: 0.176%
Cc1ccc(NC(=O)CCCc2nnc3n(C)c(=O)c4sccc4n23)cc1F | inactive: 3.52%
COc1ccc(-c2nc3c(c(SCC(=O)Nc4ccccc4F)n2)Cc2cc(C)ccc2O3)cc1 | inactive: -0.0014%
CC(=O)c1ccc(NC(=O)c2cc(S(=O)(=O)N3CCCCCC3)cn2C)cc1 | inactive: 0.636%
O=C(CNC(=O)c1ccccc1)OCc1cc(=O)n2ccsc2n1 | inactive: -21%
CC1CCn2c(nc3cc(C(=O)NCc4ccccc4)ccc32)C1 (stereo not given) | inactive: 7.66%
Cc1ccc(C)c(N2CCN(C(=O)C3CCCN(Cc4nc(-c5cccc(Cl)c5)oc4C)C3)CC2)c1 (stereo not given) | inactive: 16.4%
NC(=O)C1(N2CCCCC2)CCN(C(=O)Nc2ccc(F)cc2)CC1 | inactive: 2.02%
CCc1ccccc1NC(=O)CN1C(=O)c2ccccc2Sc2ncccc21 | inactive: 17.6%
CCCNC(=O)c1ccc2c(c1)sc1nc(-c3ccc(C)cc3)cn12 | inactive: 1.72%
CCCn1cc(S(=O)(=O)c2ccc(CC)cc2)c(=O)c2cc(F)c(N(CC)CC)cc21 | inactive: -0.743%
CCOc1cccc(NC(=O)CSc2ncc(-c3ccccc3)[nH]2)c1 | inactive: 0.0711%

Compound | activity change, negative = cytotoxicity
CCOc1ccc(CNC(=O)c2cc(=O)[nH]c3ccc(S(=O)(=O)N4CCCC4)cc23)cc1 | inactive: 8.57%
COc1ccc(Cl)cc1CNCCSc1nnnn1C | inactive: -10.4%
CCOc1cccc2sc(N3CCN(C(=O)C4CC4)CC3)nc12 | inactive: 18.6%
Cc1cccc(N2CCN(C(=O)c3ccc4c(c3)N(Cc3cccc(Cl)c3)C(=O)c3ccccc3S4=O)CC2C)c1 (stereo not given) | inactive: -13%
O=C(O)c1c(CNCc2cccc(F)c2)c2ccccc2n1Cc1ccccc1 | inactive: 2.74%
O=C(NCC(c1ccc2c(c1)OCO2)N1CCOCC1)C(=O)Nc1cccc(Cl)c1 (stereo not given) | inactive: 0.842%
COc1ccc(OC)c(CNC(=O)c2nn(C)c3c2CSc2ccccc2-3)c1 | inactive: -28.2%
Fc1cccc(Cl)c1Cn1c(-c2cccs2)nc2ccccc21 | inactive: 7.2%
Cc1ccc(NC(=O)CCC(=O)N2Cc3ccccc3Oc3ncccc32)cc1F | inactive: -3.11%
O=C(NCc1ccc(F)cc1)c1ccc2nc(N3CCCCC3)sc2c1 | inactive: -6.51%
CCOc1ccc(NC(=O)c2ccc3c(c2)CCN3S(=O)(=O)c2ccc(Cl)cc2)cc1 | inactive: 6.62%
CCCCN(C)C(=O)C1CCCN(c2ncnc3onc(C)c23)C1 (stereo not given) | inactive: -23.7%
COc1ccccc1N1CCN(C(=O)Cn2cnc3onc(-c4ccc(F)cc4)c3c2=O)CC1 | inactive: -1.36%
CCc1nn(CC(=O)NCCCN(CC(C)C)CC(C)C)c(=O)c2cc3sc(C)cc3n12 | inactive: -4.35%
COc1cccc(N2CC(NC(=O)c3ccco3)CC2=O)c1 (stereo not given) | inactive: 0.817%
O=C(c1ccc2c(=O)n(CCc3ccccc3)c(=O)[nH]c2c1)N1CCN(c2ccc(F)cc2)CC1 | inactive: 5.37%
Cc1nn(-c2ccccc2)c2c1N(CC(=O)N1CCN(c3cccc(Cl)c3)CC1)C(=O)CS2 | inactive: 11.2%
COc1ccc(Cn2c(=O)c3oc4ccccc4c3n(Cc3cccc(C(F)(F)F)c3)c2=O)cc1 | inactive: -3.13%
Cc1ccccc1-c1nc2cc(NC(=O)Cc3ccc(Cl)cc3)ccc2o1 | inactive: 9.57%
CCCCCCOc1ccc(C2C(=O)N(C3CCCCC3)CC(=O)N2CCC)cc1 (stereo not given) | inactive: -17.8%
CCOc1ccccc1CNC(=O)C1CCN(c2nn3cc(-c4ccc(F)cc4)nc3s2)CC1 | inactive: -3%
Cc1cccc(N2CCN(C(=O)c3cccc(-n4c(C)nc5cccnc54)c3)CC2)c1C | inactive: -0.0024%
COc1ccccc1Cc1nc2ccccc2nc1SCC(=O)N(C)c1ccc(F)cc1 | inactive: -12.1%
Cc1cccc(N2CCN(C(=O)Nc3cn(CC(C)C)c(=O)c4ccccc34)CC2)c1C | inactive: -3.99%

Compound | activity change, negative = cytotoxicity
CC(C)c1ccc(CN(Cc2ccco2)c2cnc(S(C)(=O)=O)nc2C(=O)Nc2ccc(F)cc2)cc1 | inactive: -0.572%
Cc1ccc(C(=O)Nc2cc3nn(-c4ccccc4)nc3cc2Cl)c(C)c1 | inactive: 2.41%
CCOc1ccccc1N(CC(=O)NCCSc1ccccc1)S(=O)(=O)c1ccccc1 | inactive: -21.3%
N#C/C(=C\c1ccc(Cl)cc1Cl)c1nc(-c2cccc(Cl)c2)cs1 | inactive: 7.65%
Cc1cccc(NC(=O)CCCCCn2c(=O)[nH]c3ccsc3c2=O)c1 | inactive: -1.04%
CCOc1ccc(CCNC(=O)CCCn2nc(C)c3sc4ccccc4c3c2=O)cc1 | inactive: 16.5%
CCOC(=O)C1CCCN(C(=O)c2cc3c(=O)[nH]c4ccc(C)cc4c3s2)C1 (stereo not given) | inactive: 16.8%
CCC(C(=O)Nc1c(C)cc(C)cc1C)n1c(=O)c(-c2ccccc2NC(C)=O)nc2ccccc21 (stereo not given) | inactive: -2.12%
COc1ccc(NC(=O)CSc2nnc(NC(=O)Nc3ccc(OC)cc3)s2)cc1 | inactive: 11.9%
Cc1ccc(-c2noc(CNC(=O)c3ccc(Br)o3)n2)cc1 | inactive: -0.584%
Cc1ccc(NS(=O)(=O)c2c(C)[nH]c(=O)[nH]c2=O)c(C)c1 | inactive: -0.709%
COc1cccc(N2CC(NC(=O)CCCc3ccccc3)CC2=O)c1 (stereo not given) | inactive: -22.8%
COc1ccc(NC(=O)CC2C(=O)N(c3cccc(C)c3)C(=O)N2C2CCCCC2)cc1 (stereo not given) | inactive: 1.42%
CC(=O)c1cccc(NC(=O)c2cc(-c3ccc(Cl)s3)nc3ccccc23)c1 | inactive: -19.9%
COc1cccc(C(=O)Nc2ccc(-c3cc(C(F)(F)F)nn3-c3ccccc3)cc2)c1 | inactive: -12.3%
Cc1ccc(C)c(Cn2c(-c3cccs3)nc3ccccc32)c1 | inactive: 2.1%
Cc1ccc(C)c(CN2C(=O)N(c3cc(Cl)ccc3C)S(=O)(=O)c3ccccc32)c1 | inactive: -20.8%
CCOc1ccccc1CNS(=O)(=O)c1ccc2[nH]c(=O)ccc2c1 | inactive: -0.136%
CC(C)Cc1ccc(S(=O)(=O)Nc2cc3c(cc2N2CCOCC2)n(C)c(=O)c(=O)n3C)cc1 | inactive: 10.4%
CC(C)c1ccc(S(=O)(=O)c2nnn3c2nc(N2CCCCC2)c2sccc23)cc1 | inactive: 3.02%
CC(C)(C)c1ccc(S(=O)(=O)N2CCN(Cc3noc(CCC(=O)N4CCCCC4)n3)CC2)cc1 | inactive: -29.9%
COc1ccc(-c2nc(CSc3nncn4c3cc3sccc34)c(C)o2)cc1OC | inactive: 7.63%
O=C(CN1C(=O)CCc2cc(S(=O)(=O)N3CCOCC3)ccc21)NCc1ccccc1 | inactive: 1.79%
CCNc1nc(OC)nc(Oc2ccc(=O)[nH]n2)n1 | inactive: 0.598%

Compound | activity change, negative = cytotoxicity
COc1ccc(C(=O)n2nc(-c3ccco3)nc2NCc2cccs2)cc1OC | inactive: 0.586%
CCc1ccccc1NC(=O)N(C)CCc1c(C)nn(C)c1C | inactive: 10.4%
Cc1ccc(-c2nc3sc(CCNC(=O)c4ccc(C)c(C)c4)c(C)n3n2)cc1 | inactive: 2%
Cc1cc(C)cc(S(=O)(=O)c2cn(C)c3cc(N4CCCC4)c(F)cc3c2=O)c1 | inactive: -0.445%
CCc1ccc(NC(=O)CSC2=Nc3ccccc3C3=NC(CCC(=O)NCc4ccco4)C(=O)N23)cc1 (stereo not given) | inactive: 12.2%
Cc1ccc(C)c(Cn2cc(S(=O)(=O)c3ccc(Cl)cc3)c(=O)c3cc(F)ccc32)c1 | inactive: 11.3%
CCN(Cc1ccccc1)C(=O)CN(c1ccc(OC)cc1)S(=O)(=O)c1c(C)nn(C)c1C | inactive: 6.84%
CCc1ccc(NC(=O)c2ccc3[nH]c(C)c(C)c3c2)cc1 | inactive: -9.02%
COc1ccc(Cl)cc1NS(=O)(=O)c1ccc2c(c1)NC(=O)CC(=O)N2 | inactive: 2.79%
CCCCN(CCCC)CCNC(=O)c1cn(CC)c2ccc(S(=O)(=O)N(C)C3CCCCC3)cc2c1=O | inactive: -7.27%
CCOc1ccc(NC(=O)Cn2c(=O)n(-c3cccc(OC)c3)c(=O)c3c4c(sc32)CCCC4)cc1 | inactive: 8.66%
O=C(CCS(=O)(=O)c1cccs1)Nc1ccc(C(=O)Nc2ccccc2F)cc1 | inactive: 6.06%
Cc1cc2c(cc1S(=O)(=O)N1CCCCC1)OCC(=O)N2 | inactive: -5.34%
Cc1ccccc1NC(=O)CSc1nc2c(c(=O)n(C)c(=O)n2C)n1Cc1ccccc1F | inactive: 13.7%
COCCNC(=O)Cn1c(=O)n(CCCCCC(=O)NCc2ccc3c(c2)OCO3)c(=O)c2sccc21 | inactive: 0.527%
CC(=O)N1CCc2c(sc3c2c(=O)n(CCc2ccccc2)c(=O)n3Cc2ccc(Cl)cc2)C1 | inactive: -14.5%
CCOC(=O)C1CCN(C(=O)Cn2c(=O)oc3cc(S(=O)(=O)N4CCC(C)CC4)ccc32)CC1 | inactive: -0.485%
CCOC(=O)Cn1c(=O)n(-c2ccccc2OC)c2nc(-c3cccc(F)c3)nc(C(N)=O)c21 | inactive: 17.2%
Cc1ccc(-c2nnc(SCc3cccc(C#N)c3)o2)cc1 | inactive: 12.9%
CCOC(=O)c1ccccc1NC(=O)N(C(C)C)C1CCN(C(C)=O)CC1 | inactive: -0.745%
COc1ccc(-c2nc(CN3CCC(C(=O)NCc4ccccc4)CC3)c(C)o2)cc1OC | inactive: 15.9%
Cn1nnc2c(N3CCN(c4ccccc4Cl)CC3)ncnc21 | inactive: -1.48%
CC(C)(C)c1ccc(-c2nc(SCCCOc3ccccc3)n3[nH]c(=O)cc3n2)cc1 | inactive: -13.1%
